41 compounds from ChEMBL document CHEMBL5308541, “MAIP: An Open-Source Tool to Enrich High-Throughput Screening Output and Identify Novel, Druglike Molecules with Antimalarial Activity” (ACS Med Chem Lett, 2023) can be followed below.

Among all 150,000 compounds or so, about 540 (0.36%) showed an effect of 50% or more. This is one part of the list.

The test concerns Plasmodium falciparum. Put plainly: Primary screen in NF54 nanoGlo assay, in single point, at 2uM, 72h; a lower Z score goes with more inhibition. It is filed as functional, Erythrocyte. The following applies: timepoint 72 hour.
`O=C1[C@@H](NCc2ccc3ncccc3c2)CCCN1c1ccccc1F`: the “% Inhibition” value is recorded as -2% and the Z score turned out to be 0.32.

On to `CN(CC(=O)N[C@@H]1C=CCCC1)Cc1cccnc1`, for which the “% Inhibition” value is -5% and the Z score is 1.01.

As to `CN1CCC(CN[C@H]2CCN(c3ccccc3)C2)(c2ccccc2)CC1`, the “% Inhibition” value was -11% and the Z score came to 1.96.

`CC1CN(c2ccccc2CNCC2CCN(C3CC3)C2)CC(C)O1` (configuration not stated): the “% Inhibition” value is -2% and the Z score is on record as 0.27.

In the case of `OC1(c2ccccc2)CCCC2CN(c3ncnc4[nH]ccc34)CC21` (configuration not stated), the “% Inhibition” value is recorded as 0% and the Z score is -0.11.

`CCc1nn(C)c(Cl)c1CNCCCN1CCCN(C)CC1`: the “% Inhibition” value was -1% and the Z score came out at 0.11.

For `CCCc1nnc(NCc2cc3cc(OC)ccc3o2)o1`, the “% Inhibition” value was -5% and the Z score stood at 0.93.

Regarding `CC[C@@H](C(=O)NC)n1cnc(-c2ccccc2)c1-c1cccc2cnccc12`, the “% Inhibition” value came out at 3% and the Z score was -0.56.

Consider `COc1cc(C(=O)O)ccc1S(=O)(=O)NC(C)(C)c1nccs1`, for which the “% Inhibition” value is on record as 0% and the Z score was found to be 0.1.

As to `Cc1nc(NC2CCN(C3CCOCC3)CC2)cc([C@H]2C[C@H](N)C2)n1`, the “% Inhibition” value was -7% and the Z score was found to be 1.24.

Consider `Cn1ncc2c(N)nc(N3CCC(O)(c4ccccc4)C4CCCCC43)nc21` (configuration not stated), for which the “% Inhibition” value is reported as -7% and the Z score worked out at 1.3.

Consider `CC[C@H]1C(=O)N(C)CCN1C(=O)c1cc(C(F)(F)F)ccc1Cl`, for which the “% Inhibition” value is reported as -6% and the Z score was 1.19.

On to `C[C@@H](c1ccc(-c2ccc3[nH]c(CO)nc3c2)cc1)N1CCCCC1`, for which the “% Inhibition” value is on record as -8% and the Z score is listed as 1.74.

`FC(F)(F)Oc1ccc(Nc2ncncc2-c2nc(-c3ccsc3)no2)cc1`: the “% Inhibition” value was -4% and the Z score came to 0.84.

On to `CCN1CCN(c2cc(CN[C@H]3CCCOc4ccc(C)cc43)ccn2)CC1`, for which the “% Inhibition” value is on record as 12% and the Z score is reported as -2.09.

As for `COc1ccc(-c2cc(C(=O)NC3CCN(c4cc(C(F)(F)F)ncn4)CC3)[nH]n2)cc1`, the “% Inhibition” value is given as 9% and the Z score is reported as -1.56.

With `COc1ccccc1N1CCN(C2CCN(c3ccc(C(=O)N[C@@H](C)c4ccccc4)cc3)CC2)CC1`, the “% Inhibition” value is reported as -11% and the Z score is recorded as 1.99.

With `Fc1cccc2c(Nc3cccc(CN4CCOCC4)c3)ncnc12`, the “% Inhibition” value is on record as -13% and the Z score stood at 2.32.

Regarding `CC(C)c1cc(NCc2ccc3cc[nH]c3c2)n2nccc2n1`, the “% Inhibition” value is reported as -4% and the Z score is listed as 0.87.

On to `Nc1nc2c(c(NCC3(N4CCOCC4)CCCC3)n1)CCNCC2`, for which the “% Inhibition” value was -2% and the Z score is recorded as 0.39.

With `CCOC1CC(CNCc2cc(-c3ccccc3)ccc2OC)(N2CCOCC2)C1` (configuration not stated), the “% Inhibition” value was 16% and the Z score is given as -3.11.

Take `CC(C)(C)OC(=O)N1CCC(CN2CCCN(Cc3ccc(F)cc3)CC2)CC1`: the “% Inhibition” value is reported as -1% and the Z score is reported as 0.12.

Consider `Cc1nccn1-c1cncc(NCc2ccnc(OC(C)C)c2)n1`, for which the “% Inhibition” value came out at 4% and the Z score is given as -0.9.

As to `Cc1cc(C(=O)N[C@@H](CO)c2ccccc2C(F)(F)F)oc1C`, the “% Inhibition” value was -5% and the Z score stood at 1.01.

For `Cc1cc(N2CCC(CNc3nc4cnccc4s3)CC2)ccn1`, the “% Inhibition” value is reported as 10% and the Z score is listed as -1.59.

Regarding `c1ccc2c(Nc3ccc4[nH]cnc4c3)c3ccccc3nc2c1`, the “% Inhibition” value was 98% and the Z score is listed as -19.44.

Consider `c1cc(N2CCOCC2)nc(C2CCN(CC34CNCC3C4)CC2)n1` (configuration not stated), for which the “% Inhibition” value is recorded as -8% and the Z score is on record as 1.26.

As to `Cc1nc(-c2ccc(C(=O)Nc3ccc(-c4nc5c(Cl)cccc5[nH]4)cc3)cc2)no1`, the “% Inhibition” value is -11% and the Z score is on record as 1.72.

`Cc1cc(CNC2CCN(CC3CC3)CC2)nc(N2CCCC2)n1`: the “% Inhibition” value is -3% and the Z score is given as 0.57.

As for `Cc1occc1-c1cc(NC(=O)N2CCC(O)(C(F)(F)F)CC2)no1`, the “% Inhibition” value is -2% and the Z score is 0.31.

Turning to `Cc1cccc(-c2cccc(N3CCC(NCc4cc(C)[nH]n4)CC3)c2)c1`, the “% Inhibition” value is -7% and the Z score is on record as 1.27.

On to `Cc1cc(N[C@@H](C)c2nc(C3CC3)no2)nc(Nc2cccc(O)c2)n1`, for which the “% Inhibition” value is on record as 8% and the Z score is -1.39.

Turning to `O=C([C@@H]1CC[C@H](Nc2ccnc3ccncc23)C1)N1CCCC1`, the “% Inhibition” value is listed as -7% and the Z score was found to be 1.

Turning to `O=C(c1cnc(OCC2CC2)cn1)N1CC[C@H](Nc2ccc3nccn3n2)C1`, the “% Inhibition” value is -7% and the Z score was 1.13.

As to `COCCn1ccc2cc(Nc3nccc(C)n3)ccc21`, the “% Inhibition” value is recorded as -3% and the Z score is on record as 0.61.

With `Clc1ccc2[nH]c(CCNc3nccc(-c4ccncc4)n3)nc2c1`, the “% Inhibition” value amounted to 6% and the Z score is listed as -1.32.

In the case of `CNc1ncccc1C(=O)N1CCN(Cc2ccoc2)[C@@H](CCO)C1`, the “% Inhibition” value is -11% and the Z score worked out at 1.83.

In the case of `CN1CCN(c2ncccc2CNc2ccc(OC(F)F)cn2)CC1`, the “% Inhibition” value was determined as 4% and the Z score is given as -0.76.

Take `COc1ccc(-c2ccc(C3CCNCC3)cc2C)cn1`: the “% Inhibition” value is 7% and the Z score is listed as -1.21.

As for `Cc1nc2ccc(C(=O)NCCc3noc(C4CC4)n3)cc2o1`, the “% Inhibition” value is listed as -2% and the Z score is 0.47.

As for `COc1ccc(S(=O)(=O)N(C)C(=O)c2cnn3c2CCCC3)cc1`, the “% Inhibition” value is reported as 3% and the Z score is recorded as -0.41.

In general, % Inhibition refers to the relative decrease from the control value, in per cent.
